Results as given in ChEMBL document CHEMBL5606460, “ASAP - DENV-2 NS2B-NS3 protease fluorescence single point” (2024).
In all, about 2,000 compounds went through this assay and about 110 (5.5%) showed an effect of 50% or more. The list shows a part of the results.

Biological target: Genome polyprotein (dengue virus type 2) (UniProt P29990)
[1] = Thailand/16681/1984, Concentration 25.0 uM, Number of replicates 1.0

How did the inhibition (Thailand/16681/1984, Concentration 49.5 uM, Number of replicates 2.0, Standard deviation 0.34288319939631623 %) turn out when Cc1[nH]nnc1CNC(=O)[C@]1(c2ccc(F)cc2)CCCNC1 was run?
Its inhibition is -0.131%.

What about the inhibition (Thailand/16681/1984, Concentration 99.01 uM, Number of replicates 2.0, Standard deviation 0.40057464857499825 %) of the same compound?
Its inhibition is -0.659%.

And the inhibition (Thailand/16681/1984, Concentration 198.0 uM, Number of replicates 2.0, Standard deviation 1.688291483666346 %)?
Its inhibition is -0.62%.

Which inhibition (Thailand/16681/1984, Concentration 49.5 uM, Number of replicates 2.0, Standard deviation 1.188000805409302 %) does the source give for CC(C)(C)OC(=O)N[C@H](C(=O)Nc1cccc(C(N)=O)c1)c1ccc(OCc2ccccc2)cc1 here?
The inhibition was 2.72%.

What about the inhibition (Thailand/16681/1984, Concentration 99.01 uM, Number of replicates 2.0, Standard deviation 0.11203913598390365 %) of the same compound?
The inhibition was 5.59%.

What about the inhibition (Thailand/16681/1984, Concentration 198.0 uM, Number of replicates 2.0, Standard deviation 0.9108004769909699 %) of the same compound?
The inhibition was 7.47%.

With CN(Cc1cccc2cccnc12)C(=O)C1CCN(c2ccc(C=O)cc2)CC1 as the compound, how does the inhibition [1] read?
Its inhibition is 14.9%.

Which inhibition (Thailand/16681/1984, Concentration 49.5 uM, Number of replicates 2.0, Standard deviation 0.004982431843563849 %) does the source give for Cc1nn(C[C@@H]2CC3(CC3)S(=O)(=O)N2)cc1C1CCNCC1 here?
Its inhibition is -0.506%.

What about the inhibition (Thailand/16681/1984, Concentration 99.01 uM, Number of replicates 2.0, Standard deviation 1.0725852853911906 %) of the same compound?
The inhibition was -1.64%.

What about the inhibition (Thailand/16681/1984, Concentration 198.0 uM, Number of replicates 2.0, Standard deviation 0.46019703454478256 %) of the same compound?
Its inhibition is -0.129%.

What does the source list for O=C(Nc1ccc2c(c1)B(O)OC2)c1cccc(OCc2c(Cl)cccc2Cl)c1?
inhibition (Thailand/16681/1984, Concentration 49.5 uM, Number of replicates 2.0, Standard deviation 1.0901211560637243 %): 19.7%; inhibition (Thailand/16681/1984, Concentration 99.01 uM, Number of replicates 2.0, Standard deviation 0.0726220545573632 %): 28.3%; inhibition (Thailand/16681/1984, Concentration 198.0 uM, Number of replicates 2.0, Standard deviation 0.8886497792875844 %): 48.3%

How did the inhibition (Thailand/16681/1984, Concentration 49.5 uM, Number of replicates 2.0, Standard deviation 0.701809322723789 %) turn out when c1cncc(CN2CC[C@H](c3c[nH]c4ccccc34)C2)c1 was run?
The inhibition was -0.758%.

What about the inhibition (Thailand/16681/1984, Concentration 99.01 uM, Number of replicates 2.0, Standard deviation 0.005419378758788415 %) of the same compound?
The inhibition was -0.106%.

What about the inhibition (Thailand/16681/1984, Concentration 198.0 uM, Number of replicates 2.0, Standard deviation 0.679047938258905 %) of the same compound?
Its inhibition is 2.74%.

Which results are given for CCn1ccnc(N2CC[C@H](c3cccnc3)C2)c1=O?
inhibition (Thailand/16681/1984, Concentration 49.5 uM, Number of replicates 2.0, Standard deviation 1.1794090860466593 %): 9.76%; inhibition (Thailand/16681/1984, Concentration 99.01 uM, Number of replicates 2.0, Standard deviation 0.4566331181081256 %): 17.4%; inhibition (Thailand/16681/1984, Concentration 198.0 uM, Number of replicates 2.0, Standard deviation 0.521943874560607 %): 30.8%

With O=Cc1ccc(N2CCC(C(=O)Nc3ncccc3OCc3ccccc3)CC2)cc1 as the compound, how does the inhibition [1] read?
Its inhibition is 8.41%.

O=Cc1ccc(N2CCC(C(=O)NCCCn3nccc3C3CC3)CC2)cc1 was tested. Which inhibition [1] did it give?
The inhibition was 15.6%.

How did the inhibition [1] turn out when O=Cc1ccc(N2CCC(C(=O)N3CCN(c4cccc([N+](=O)[O-])c4)CC3)CC2)cc1 was run?
The inhibition was 10.2%.

What does the source list for CCc1ccccc1S(=O)(=O)Nc1ccc(Cl)cc1C(=O)NC?
inhibition (Thailand/16681/1984, Concentration 49.5 uM, Number of replicates 2.0, Standard deviation 0.5004375178772561 %): -3.04%; inhibition (Thailand/16681/1984, Concentration 99.01 uM, Number of replicates 2.0, Standard deviation 0.3390370044417576 %): -5.13%; inhibition (Thailand/16681/1984, Concentration 198.0 uM, Number of replicates 2.0, Standard deviation 0.452208710538846 %): -8.94%

For C=CCN(C(=O)C1CCN(c2ccc(C=O)cc2)CC1)[C@H]1CCS(=O)(=O)C1, which inhibition [1] is on record?
The inhibition was 14.8%.

Which results are given for Cc1nc([C@H]2CCCNC2)[nH]c1C(=O)N1CC[C@H](Oc2ccc(C(N)=O)cc2)C1?
inhibition (Thailand/16681/1984, Concentration 49.5 uM, Number of replicates 2.0, Standard deviation 2.3952209741346326 %): -1.21%; inhibition (Thailand/16681/1984, Concentration 99.01 uM, Number of replicates 2.0, Standard deviation 1.3723206907713277 %): -0.315%; inhibition (Thailand/16681/1984, Concentration 198.0 uM, Number of replicates 2.0, Standard deviation 1.2934192615480233 %): 0.162%

Which inhibition [1] does the source give for O=Cc1ccc(N2CCC(C(=O)NCC(=O)c3ccc(O)cc3)CC2)cc1 here?
Its inhibition is 24.6%.

How did the inhibition [1] turn out when CN(Cc1ccc(Cl)cc1)C(=O)C1CCN(c2ccc(C=O)cc2)CC1 was run?
Its inhibition is 14%.

Which results are given for CNC(=O)c1cc(Cl)ccc1NS(=O)(=O)c1ccc(N2CCN(C)CC2)cc1?
inhibition (Thailand/16681/1984, Concentration 49.5 uM, Number of replicates 2.0, Standard deviation 0.08610681229787821 %): 0.821%; inhibition (Thailand/16681/1984, Concentration 99.01 uM, Number of replicates 2.0, Standard deviation 0.4310124703668382 %): 0.867%; inhibition (Thailand/16681/1984, Concentration 198.0 uM, Number of replicates 2.0, Standard deviation 0.6883761316524271 %): 1.75%

For O=Cc1ccc(N2CCC(C(=O)Nc3ccc(F)c(Br)c3)CC2)cc1, which inhibition [1] is on record?
The inhibition was 11.7%.

Which inhibition [1] does the source give for COc1ccc(CN(C)C(=O)C2CCN(c3ccc(C=O)cc3)CC2)c(OC)c1 here?
Its inhibition is 14%.

With NC(=O)c1ccc(CNC(=O)NCc2ccc(OCc3ccccc3)cc2)cc1 as the compound, how does the inhibition (Thailand/16681/1984, Concentration 49.5 uM, Number of replicates 2.0, Standard deviation 0.6584955649548859 %) read?
The inhibition was -0.275%.

What about the inhibition (Thailand/16681/1984, Concentration 99.01 uM, Number of replicates 2.0, Standard deviation 0.579227797958503 %) of the same compound?
The inhibition was 0.348%.

What about the inhibition (Thailand/16681/1984, Concentration 198.0 uM, Number of replicates 2.0, Standard deviation 0.34476708449941224 %) of the same compound?
The inhibition was -0.309%.

With Oc1c(CNCc2nnc3ccccn23)ccc(F)c1F as the compound, how does the inhibition (Thailand/16681/1984, Concentration 49.5 uM, Number of replicates 2.0, Standard deviation 2.4207923311365867 %) read?
Its inhibition is 1.93%.

What about the inhibition (Thailand/16681/1984, Concentration 99.01 uM, Number of replicates 2.0, Standard deviation 8.877682452871714 %) of the same compound?
Its inhibition is 6.11%.

And the inhibition (Thailand/16681/1984, Concentration 198.0 uM, Number of replicates 2.0, Standard deviation 0.406835436480746 %)?
The inhibition was 6.15%.

For CCn1ccnc(N2CC[C@H](C3CCOCC3)C2)c1=O, which inhibition (Thailand/16681/1984, Concentration 50.0 uM, Number of replicates 2.0, Standard deviation 0.082374498127996 %) is on record?
Its inhibition is 7.77%.

And the inhibition (Thailand/16681/1984, Concentration 100.0 uM, Number of replicates 2.0, Standard deviation 0.22598802996753292 %)?
Its inhibition is 16.5%.

And the inhibition (Thailand/16681/1984, Concentration 200.0 uM, Number of replicates 2.0, Standard deviation 0.7164411280199523 %)?
Its inhibition is 29.2%.

For COc1cccc(N2C[C@@H](NC(=O)C3CCN(c4ccc(C=O)cc4)CC3)CC2=O)c1, which inhibition [1] is on record?
The inhibition was 13.3%.

How did the inhibition [1] turn out when CC[C@H]1c2cccn2CCN1C(=O)C1CCN(c2ccc(C=O)cc2)CC1 was run?
The inhibition was 9.97%.

For CN(C)Cc1ccc(CN(C)C(=O)C2CCN(c3ccc(C=O)cc3)CC2)cc1, which inhibition [1] is on record?
Its inhibition is 13.6%.

c1ccc2c([C@H]3CCN(CC[C@H]4CCCOC4)C3)c[nH]c2c1 was tested. Which inhibition (Thailand/16681/1984, Concentration 49.5 uM, Number of replicates 2.0, Standard deviation 0.10584354925280222 %) did it give?
The inhibition was -2.92%.

What about the inhibition (Thailand/16681/1984, Concentration 99.01 uM, Number of replicates 2.0, Standard deviation 1.1156488278571965 %) of the same compound?
The inhibition was -1.89%.

What about the inhibition (Thailand/16681/1984, Concentration 198.0 uM, Number of replicates 2.0, Standard deviation 1.1137416829620788 %) of the same compound?
The inhibition was -1.06%.

O=Cc1ccc(N2CCC(C(=O)NCc3ccccc3Oc3ccccc3)CC2)cc1 was tested. Which inhibition [1] did it give?
Its inhibition is 1.74%.

CN(C)Cc1ccc(S(=O)(=O)Nc2cc(Cl)cc(C(=O)NC(C)(C)CO)c2)cc1 was tested. Which inhibition (Thailand/16681/1984, Concentration 49.5 uM, Number of replicates 2.0, Standard deviation 0.03630462095770794 %) did it give?
Its inhibition is -4.04%.

And the inhibition (Thailand/16681/1984, Concentration 99.01 uM, Number of replicates 2.0, Standard deviation 1.3834969391783556 %)?
Its inhibition is -4.68%.

And the inhibition (Thailand/16681/1984, Concentration 198.0 uM, Number of replicates 2.0, Standard deviation 0.4655810626343824 %)?
The inhibition was -3.5%.
